The target in one assay is SRCAP subunit of SRCAP-C (human, UniProt Q6ZRS2 1-3230). Briefly: cryo-EM structure; purified SRCAP-C mixed 1:1 with acetylated 108N12 nucleosome, 1 mM ATP 30 min at 30 °C, then 0.5 mM ADP-BeFx; gradient fixation with glutaraldehyde; ADP-BeFx-bound state; ARP module refined from apo and ADP-BeFx particles, ACTB^b from the ADP sample. To be noted: both partners purified.
Assay [1] deals with T1, RUVBL1 subunit of SRCAP-C (human, UniProt Q9Y265).
T1 construct: RUVBL1, human, full-length ORF; Stands in a RUVBL1–RUVBL2 hexamer; source: Expi293F suspension cells, co-transfected with the other SRCAP-C subunits, purified as the complex
The description is as above. The following applies: both partners purified.

T1 sequence (Q9Y265 whole entry): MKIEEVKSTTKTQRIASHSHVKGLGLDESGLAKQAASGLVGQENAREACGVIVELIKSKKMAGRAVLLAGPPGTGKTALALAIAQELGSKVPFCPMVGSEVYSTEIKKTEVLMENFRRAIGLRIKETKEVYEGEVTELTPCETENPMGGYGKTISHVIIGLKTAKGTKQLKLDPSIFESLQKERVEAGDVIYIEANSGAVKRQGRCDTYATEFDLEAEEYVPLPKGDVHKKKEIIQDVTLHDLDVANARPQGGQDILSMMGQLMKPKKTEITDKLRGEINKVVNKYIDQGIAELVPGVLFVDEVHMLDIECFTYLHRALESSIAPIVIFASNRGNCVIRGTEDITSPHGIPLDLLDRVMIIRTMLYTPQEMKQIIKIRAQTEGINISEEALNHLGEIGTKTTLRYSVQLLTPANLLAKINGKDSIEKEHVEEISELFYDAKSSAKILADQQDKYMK
Sequence of SRCAP subunit of SRCAP-C (Q6ZRS2 whole entry): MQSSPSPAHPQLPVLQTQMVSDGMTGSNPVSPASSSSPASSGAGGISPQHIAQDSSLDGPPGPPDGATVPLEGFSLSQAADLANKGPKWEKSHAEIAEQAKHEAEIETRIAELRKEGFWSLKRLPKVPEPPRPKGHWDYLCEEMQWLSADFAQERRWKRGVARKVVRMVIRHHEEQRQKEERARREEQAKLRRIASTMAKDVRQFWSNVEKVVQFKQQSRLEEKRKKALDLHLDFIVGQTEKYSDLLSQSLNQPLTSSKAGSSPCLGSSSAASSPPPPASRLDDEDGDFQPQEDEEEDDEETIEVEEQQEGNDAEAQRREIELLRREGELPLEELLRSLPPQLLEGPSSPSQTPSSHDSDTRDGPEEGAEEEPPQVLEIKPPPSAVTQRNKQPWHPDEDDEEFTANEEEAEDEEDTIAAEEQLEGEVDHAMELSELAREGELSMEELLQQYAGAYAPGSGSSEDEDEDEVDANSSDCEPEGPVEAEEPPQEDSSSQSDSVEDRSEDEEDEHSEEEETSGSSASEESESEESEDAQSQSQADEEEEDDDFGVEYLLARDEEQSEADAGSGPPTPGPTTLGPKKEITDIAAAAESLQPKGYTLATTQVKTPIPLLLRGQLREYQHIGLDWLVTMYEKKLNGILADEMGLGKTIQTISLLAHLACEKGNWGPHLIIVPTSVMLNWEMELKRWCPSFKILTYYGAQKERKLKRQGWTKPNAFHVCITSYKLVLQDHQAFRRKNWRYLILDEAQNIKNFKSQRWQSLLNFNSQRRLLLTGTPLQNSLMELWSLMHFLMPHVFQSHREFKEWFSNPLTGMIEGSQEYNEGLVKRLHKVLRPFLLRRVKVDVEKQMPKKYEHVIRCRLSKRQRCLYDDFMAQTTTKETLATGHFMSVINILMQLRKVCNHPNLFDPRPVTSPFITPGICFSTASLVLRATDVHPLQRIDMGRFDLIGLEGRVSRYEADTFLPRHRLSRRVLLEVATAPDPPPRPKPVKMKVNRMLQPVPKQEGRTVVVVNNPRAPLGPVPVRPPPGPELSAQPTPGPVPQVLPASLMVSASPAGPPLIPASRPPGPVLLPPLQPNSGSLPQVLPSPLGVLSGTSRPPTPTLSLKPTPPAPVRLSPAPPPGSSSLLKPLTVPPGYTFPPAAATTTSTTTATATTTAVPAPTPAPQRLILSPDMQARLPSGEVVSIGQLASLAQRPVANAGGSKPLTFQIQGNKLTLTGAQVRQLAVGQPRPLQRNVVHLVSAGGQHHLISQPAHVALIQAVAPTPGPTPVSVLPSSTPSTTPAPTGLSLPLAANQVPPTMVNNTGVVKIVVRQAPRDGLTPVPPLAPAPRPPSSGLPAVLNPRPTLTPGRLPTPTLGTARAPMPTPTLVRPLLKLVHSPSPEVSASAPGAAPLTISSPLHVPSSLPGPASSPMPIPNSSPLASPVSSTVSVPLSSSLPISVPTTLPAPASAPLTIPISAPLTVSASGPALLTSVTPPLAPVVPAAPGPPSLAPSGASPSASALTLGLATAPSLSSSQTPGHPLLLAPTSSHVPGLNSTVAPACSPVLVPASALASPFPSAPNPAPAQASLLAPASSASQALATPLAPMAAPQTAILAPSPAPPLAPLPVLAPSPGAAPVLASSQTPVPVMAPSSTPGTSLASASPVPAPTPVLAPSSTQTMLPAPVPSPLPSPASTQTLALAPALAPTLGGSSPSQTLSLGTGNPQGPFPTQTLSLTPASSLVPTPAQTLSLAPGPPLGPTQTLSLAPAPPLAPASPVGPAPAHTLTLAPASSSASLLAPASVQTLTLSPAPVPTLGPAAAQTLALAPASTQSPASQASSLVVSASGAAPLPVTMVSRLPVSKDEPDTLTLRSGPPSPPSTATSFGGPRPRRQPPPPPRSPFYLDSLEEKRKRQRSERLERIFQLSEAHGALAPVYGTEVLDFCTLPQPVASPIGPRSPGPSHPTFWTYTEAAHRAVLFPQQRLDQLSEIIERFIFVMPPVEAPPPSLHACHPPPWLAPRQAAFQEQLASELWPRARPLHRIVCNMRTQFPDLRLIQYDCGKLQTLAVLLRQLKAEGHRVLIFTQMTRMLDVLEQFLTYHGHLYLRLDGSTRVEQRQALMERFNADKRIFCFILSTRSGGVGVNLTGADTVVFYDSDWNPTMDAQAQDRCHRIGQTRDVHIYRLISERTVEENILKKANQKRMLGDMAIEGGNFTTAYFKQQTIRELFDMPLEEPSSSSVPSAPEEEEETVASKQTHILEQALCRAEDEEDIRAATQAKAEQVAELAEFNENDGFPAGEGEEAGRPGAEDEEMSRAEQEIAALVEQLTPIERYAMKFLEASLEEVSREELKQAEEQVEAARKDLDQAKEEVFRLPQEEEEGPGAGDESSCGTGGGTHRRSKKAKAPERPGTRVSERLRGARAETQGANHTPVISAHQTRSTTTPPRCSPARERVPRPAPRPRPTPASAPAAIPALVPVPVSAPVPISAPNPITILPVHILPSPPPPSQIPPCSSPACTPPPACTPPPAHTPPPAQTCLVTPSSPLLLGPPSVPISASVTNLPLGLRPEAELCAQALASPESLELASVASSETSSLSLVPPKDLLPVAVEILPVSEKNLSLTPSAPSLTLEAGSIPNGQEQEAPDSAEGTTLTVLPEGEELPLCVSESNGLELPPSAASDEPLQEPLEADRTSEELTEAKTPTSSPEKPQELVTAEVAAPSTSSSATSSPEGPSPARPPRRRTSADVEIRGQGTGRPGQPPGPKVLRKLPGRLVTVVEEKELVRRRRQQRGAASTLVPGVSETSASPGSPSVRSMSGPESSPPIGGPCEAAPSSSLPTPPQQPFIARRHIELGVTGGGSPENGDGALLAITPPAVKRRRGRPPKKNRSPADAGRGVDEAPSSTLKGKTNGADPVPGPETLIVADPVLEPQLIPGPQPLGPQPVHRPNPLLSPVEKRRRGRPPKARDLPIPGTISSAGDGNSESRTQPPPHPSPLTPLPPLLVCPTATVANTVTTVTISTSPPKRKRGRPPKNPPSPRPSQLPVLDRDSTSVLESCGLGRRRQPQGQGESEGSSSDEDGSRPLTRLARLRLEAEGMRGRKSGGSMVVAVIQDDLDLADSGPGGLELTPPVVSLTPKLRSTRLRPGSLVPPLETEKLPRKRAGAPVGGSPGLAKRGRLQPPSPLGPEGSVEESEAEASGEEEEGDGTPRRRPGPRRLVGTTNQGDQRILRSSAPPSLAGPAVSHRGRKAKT

B1: ARP6 subunit of SRCAP-C (natural protein)
chain: not shown
notes: ARP6 (actin-related protein 6), human, full-length ORF; source: Expi293F suspension cells, co-transfected with the other SRCAP-C subunits, purified as the complex
B1: the binding result (in the assay with SRCAP subunit of SRCAP-C; in assay [1]) was “binds” throughout.

(Values after paper PMC10853557, “Structural insights into histone exchange by human SRCAP complex” (Cell Discovery, 2024).)
